Assay results as given in PubChem BioAssay AID1466 (National Center for Advancing Translational Sciences (NCATS), 2008).
Hit rate of the full screen: of about 200,000 compounds, about 10 (0.005%) were called active. Inconclusive results, whose numbers are uncertain, are shown with a selection of clear calls. Calls come from the whole dose curve; as a rule, active = well fitted inhibition curve with a large enough effect; inconclusive = small, poorly fitted or top-dose-only effect, or effect the other way, or another doubt; inactive = no such curve, though single readings can be large or run the other way. No potency is given beside an inconclusive call; the fits are too rough.
Potency is the fitted concentration of half-maximal effect; tags give direction and shape of the fitted curve.
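Throughout, for activity change, negative = inhibition: plate controls were uninhibited enzyme wells for no effect and no-enzyme background for full effect.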

What follows are compounds tested against Lysosomal alpha-glucosidase (Homo sapiens) (UniProt P10253) (assay: qHTS Assay for Inhibitors of Human alpha-Glucosidase as a Potential Chaperone Treatment of Pompe Disease). Conditions: purified human GAA, 4-MU-alpha-glucoside fluorescence; activity change, negative = inhibition: at 76.9 µM (top of the series) unless noted.
In short: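 Fluorescence at Ex 365/Em 440 nm from 4-methylumbelliferone reported enzyme activity after 20 min at room temperature. Reactions used 4 nM enzyme and 400 uM substrate at pH 5.0; curves fitted with the Hill equation.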
For COc1ccc(-c2cc(OC)c3c(C)oc(C)c3c(=O)c2)cc1OC, the activity change, negative = inhibition was inconclusive: -15.9% [inhibitor].
In the case of COc1ccc(-n2c(N)c(C(=O)NCc3ccco3)c3nc4ccccc4nc32)cc1, the Potency is reported as inconclusive [activator, full curve].
CN(C)S(=O)(=O)c1ccc(NC(=O)COc2ncnc3c2cnn3-c2ccccc2)cc1 was tested, and the activity change, negative = inhibition was inconclusive: -17.5% [inhibitor].
In the case of COC(=O)C1=C(N)Oc2cc(C)[nH]c(=O)c2C1c1ccncc1 (stereo not given), the activity change, negative = inhibition is reported as inconclusive: 17.9% [activator].
Cc1ccc(CN(Cc2cc3cc(C)ccc3[nH]c2=O)C(=O)N2CCOCC2)cc1 was tested, and the activity change, negative = inhibition was inconclusive: -15.4% [inhibitor].
In the case of Cc1[nH]c2ccc(F)cc2c1CCN(Cc1ccncc1)C(=S)Nc1cccc(F)c1, the Potency is reported as inconclusive [inhibitor, single point].
COCCNC(=S)Nc1ccccn1 was tested, and the activity change, negative = inhibition was inconclusive: 15.8% [activator].
For Cc1c(-c2ccccc2)nc2ccccc2c1C(=O)OCC(=O)Nc1ncc(C(F)(F)F)cc1Cl, the Potency was inconclusive [inhibitor, single point].
For CCC(=O)c1ccc(N2CCN(C(=O)c3cccc(F)c3)CC2)c(F)c1, the Potency was inconclusive [inhibitor, single point].
With O=C(Cn1ncc2c1-c1ccccc1OC2)N1CCN(c2ccccn2)CC1 the Potency was inconclusive [inhibitor, full curve, poor fit].
For COc1cc(C2C(C#N)=C(N)N(c3sc4c(c3C#N)CCCC4)C3=C2C(=O)CC(C)(C)C3)cc(OC)c1OC (stereo not given), the activity change, negative = inhibition was inconclusive: 16% [activator].
O=[N+]([O-])/C(N=Nc1ccccc1)=N\Nc1ccccc1 was tested, and the Potency was inconclusive [inhibitor, single point].
In the case of Cc1ccccc1Nc1nc(N)nc(COC(=O)c2ccc(S(=O)(=O)N(C)C)cc2)n1, the activity change, negative = inhibition is reported as inconclusive: -17.1% [inhibitor].
In the case of Cc1c(-c2ncn[nH]2)sc(C#N)c1-c1ccccc1, the Potency is reported as inconclusive [inhibitor, single point].
CCN(CC(=O)NCc1ccc(Cl)cc1)CC(=O)Nc1ccc(C(N)=O)cc1 was tested, and the Potency was inconclusive [inhibitor, single point].
COc1ccc2c(c1OC)C(=O)N1C2SC[C@H]1C(=O)NC1CC(C)(C)NC(C)(C)C1 (stereo not given in full) was tested, and the Potency was inconclusive [inhibitor, single point].
With Cc1ccnc(NC(=O)CCC(=O)N(CC(=O)NC(C)(C)C)c2ccc3c(c2)OCCO3)c1 the activity change, negative = inhibition was inconclusive: 17.2% [activator].
With CS(=O)(=O)Cc1nc2ccccc2oc1=O the “activity change, negative = inhibition” value was inactive: -4.03%.
Clc1cccc(Cl)c1/C=C/c1nc2ccccc2[nH]1 was tested, and the Potency was inconclusive [activator, single point].
In the case of CCOC(=O)c1sc2nc(C)c3c(c2c1N)CC(C)(C)OC3, the Potency is reported as inconclusive [activator, single point].
For CCOc1ccc(OCc2ccc(C(=O)N/N=C(\C)c3ccccn3)cc2)cc1, the Potency was inconclusive [inhibitor, single point].
For COc1ccc(Cn2c(SCC(=O)NCc3ccco3)nc3ccsc3c2=O)cc1, the Potency was inconclusive [inhibitor, single point].
In the case of COc1ccccc1Nc1nc(N)nc(CN2CCN(Cc3ccccc3)CC2)n1, the “activity change, negative = inhibition” value is reported as inactive: 8.76%.
With O=CN1CCN(c2ncnc3c2nnn3Cc2c(F)cccc2Cl)CC1 the Potency was inconclusive [activator, partial curve, poor fit].
For COc1c2ccoc2nc2c(OC)c(OCC(O)C(C)(C)O)ccc12 (stereo not given), the Potency was inconclusive [inhibitor, single point].
With Nc1cc2c(cc1C(=O)c1cccc(Br)c1)OCCO2 the Potency was inconclusive [inhibitor, single point].
With CCOC(=O)c1ccc(NC(=O)CN2CCc3ccccc3C2)cc1 the activity change, negative = inhibition was inconclusive: -16.4% [inhibitor].
In the case of Cn1ccc2c([N+](=O)[O-])cccc2c1=O, the Potency is reported as inconclusive [inhibitor, single point].
For CN1/C(=C\C(=O)c2cccnc2Cl)C(C)(C)c2ccccc21, the Potency was inconclusive [inhibitor, partial curve].
For CN(Cc1ccccc1)C(=O)C1CCN(S(C)(=O)=O)CC1, the activity change, negative = inhibition was inconclusive: 22.3% [activator].
In the case of Cc1cc(-c2ccc(N3CCOCC3)cc2)nc2ccccc12, the Potency is reported as inconclusive [activator, partial curve].
CCC(=O)N1N=C(c2ccc(NS(C)(=O)=O)cc2)CC1c1ccc(C)cc1 (stereo not given) was tested, and the Potency was inconclusive [activator, partial curve].
For O=c1/c(=C/c2ccccn2)sc2nc3ccccc3n12, the “activity change, negative = inhibition” value was inactive: -6.08%.
In the case of CN(C)C(=O)c1ccc(-n2cnc3ccccc3c2=O)cc1, the Potency is reported as inconclusive [inhibitor, single point].
With CC(C)N1CCc2c(sc(NC(=O)c3cc4cc([N+](=O)[O-])ccc4s3)c2C(N)=O)C1 the Potency was inconclusive [inhibitor, full curve].
COc1ccc2nc(Nc3nc4ccc(NC(C)=O)cc4s3)sc2c1 was tested, and the Potency was inconclusive [activator, partial curve].
In the case of NC(=O)N/N=C\c1cc(Br)ccc1O, the Potency is reported as inconclusive [activator, partial curve].
In the case of CC(=O)Nc1cccc(-n2nnc(SCC(=O)Nc3ccccc3)n2)c1, the activity change, negative = inhibition is reported as inconclusive: -15.2% [inhibitor].
CCN(CC)CCn1c(SCC(=O)Nc2ccc(F)cc2)nc2c(sc3ccccc32)c1=O was tested, and the Potency was inconclusive [activator, full curve, poor fit].
O=C(Nc1ccc(F)cc1)OCCOc1ccc([N+](=O)[O-])cc1 was tested, and the Potency was inconclusive [inhibitor, full curve].
With CCn1c(C(=O)O)c(CC(=O)Nc2ccccc2F)c2ccccc21 the activity change, negative = inhibition was inconclusive: 4.36% [activator].
With COc1ccc(C2(CNC(=O)c3ccc(C)cc3)CCOCC2)cc1 the activity change, negative = inhibition was inconclusive: 9.77% [activator].
For Fc1ccc(Nc2ccc3ccccc3n2)c(F)c1, the Potency was inconclusive [inhibitor, single point].
With COc1ccc(CNc2nc3nc(C)cc(C)n3n2)cc1OC the Potency was inconclusive [inhibitor, single point].
In the case of CC(/C=N/NC(=O)c1cc(-c2ccncc2)nc2ccccc12)=C\c1ccco1, the “activity change, negative = inhibition” value is reported as inactive: -4.77%.
Cc1cc(C)c2c(n1)nn1c(NCCN3CCOCC3)cc(C)nc21 was tested, and the Potency was inconclusive [activator, partial curve].
With COc1cccc(NC(=O)Cn2c(=O)n(CCCC(=O)NCc3ccco3)c(=O)c3ccccc32)c1 the activity change, negative = inhibition was inconclusive: -15.7% [inhibitor].
For COc1cccc(-c2ccc(C#N)c(=O)[nH]2)c1, the Potency was inconclusive [activator, partial curve].
With O=S(=O)(NCC(c1ccco1)N1CCN(c2ccccc2F)CC1)c1ccccc1 (stereo not given) the Potency was inconclusive [inhibitor, partial curve].
In the case of CC1CCN(c2ccc([N+](=O)[O-])cn2)CC1, the activity change, negative = inhibition is reported as inconclusive: -16.2% [inhibitor].
With CCOC(=O)CN1C(=O)C(Sc2n[nH]c(-c3ccccc3)n2)CCc2ccccc21 (stereo not given) the Potency was inconclusive [inhibitor, single point].
In the case of O=C1CCc2cc(S(=O)(=O)N3CCC(C(=O)NCc4ccccc4Cl)CC3)ccc2N1, the Potency is reported as inconclusive [inhibitor, single point].
For O=C(O)CCc1ccc(-c2ccc(Cl)cc2)n1CCC(=O)O, the activity change, negative = inhibition was inconclusive: 41.8% [activator].
For Cc1cnc(NC(=O)CCNC(=O)c2ccccc2Cl)s1, the Potency was inconclusive [inhibitor, partial curve].
For Cc1cc(C)cc(NC(=O)C(Sc2ncnc3ccccc23)c2ccccc2)c1 (stereo not given), the Potency was inconclusive [inhibitor, full curve, poor fit].
Nc1nc(CN2CCC(Cc3ccccc3)CC2)nc(Nc2ccccc2)n1 was tested, and the “activity change, negative = inhibition” value was inactive: -12%.
For CCOC(=O)C1=NN(C(=O)Cc2ccccc2)C(O)(C(C)(C)C)C1 (stereo not given), the Potency was inconclusive [inhibitor, single point].
With O=C1C2C3C=CC([C@@H]2C(=O)N1c1nccs1)C31CC1 (stereo not given in full) the Potency was inconclusive [inhibitor, single point].
With COc1ccc(-c2ccc(CCC(=O)O)n2CC(C)C)cc1 the Potency was inconclusive [activator, single point].
For Cc1cccc(-n2c(SCC(=O)Nc3ncc(Cl)cc3Cl)nc3ccccc32)c1, the Potency was inconclusive [inhibitor, single point].
O=[N+]([O-])c1ccccc1NCCNc1ncc(C(F)(F)F)cc1Cl was tested, and the Potency was inconclusive [inhibitor, full curve].
In the case of Cc1oc(-c2ccc(Cl)cc2)nc1CS(=O)CC(=O)NCCN1CCCC1 (stereo not given), the Potency is reported as inconclusive [inhibitor, single point].
In the case of COc1ccc(Nc2nnc(SCc3cc(=O)n4ccsc4n3)s2)cc1, the Potency is reported as inconclusive [inhibitor, single point].
In the case of Cc1ccc2[nH]c(=O)c(-c3nc4cc(C)ccn4c3NCc3ccco3)cc2c1, the activity change, negative = inhibition is reported as inconclusive: -16.4% [inhibitor].
In the case of NC(=O)c1ccc(Oc2ccc3ccc(=O)oc3c2)c([N+](=O)[O-])c1, the Potency is reported as inconclusive [activator, partial curve].
